# Experimental data reported in publication PMC5700166.
# This is a selection; strong and weak results do not stand in their true shares. The list includes weakly bound sequences.
# Target: T1, GST-Ap-NF-kB RHD (UniProt A0A913YAJ5)
# T1 sequence: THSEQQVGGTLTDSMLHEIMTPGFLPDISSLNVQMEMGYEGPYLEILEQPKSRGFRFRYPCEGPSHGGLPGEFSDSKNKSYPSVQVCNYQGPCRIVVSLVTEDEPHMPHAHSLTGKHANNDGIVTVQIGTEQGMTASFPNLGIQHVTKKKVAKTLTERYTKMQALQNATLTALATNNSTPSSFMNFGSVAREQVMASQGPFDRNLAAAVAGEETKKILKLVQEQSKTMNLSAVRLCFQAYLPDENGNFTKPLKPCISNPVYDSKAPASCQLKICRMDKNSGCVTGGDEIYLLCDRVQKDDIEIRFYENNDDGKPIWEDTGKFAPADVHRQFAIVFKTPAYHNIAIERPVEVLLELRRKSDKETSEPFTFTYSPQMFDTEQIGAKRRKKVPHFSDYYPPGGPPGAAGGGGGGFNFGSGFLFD
# Assay: protein-binding microarray (PBM)
# Conditions: PBM: ~300 nM protein, 6 mM HEPES pH 7.8, 80 mM KCl, 0.5 mM EDTA, 0.5 mM EGTA, 6% glycerol, 35 ng/ul poly-dIdC, 1% milk, 1 h, room temperature; high values mean tight binding; double strand, one strand shown
row,Sequence,binding signal
1,CCGATTAACATCACGTACTCCCCTGATGTTAATCGGGTCTTGATTCGCTTGACGCTGCTG,4.07 z-score
2,CCGATTAACATCAGGGGAAACCATGATGTTAATCGGGTCTTGATTCGCTTGACGCTGCTG,6.6 z-score
3,CCGATTAACATCAGAGTCCCCCCTGATGTTAATCGGGTCTTGATTCGCTTGACGCTGCTG,5.97 z-score
4,CCGATTAACATCAAGTACGGGAATGATGTTAATCGGGTCTTGATTCGCTTGACGCTGCTG,1.11 z-score
5,CCGATTAACATCAGGAGTCTCCCTGATGTTAATCGGGTCTTGATTCGCTTGACGCTGCTG,1.69 z-score
6,CCGATTAACATCAAGAAATTTCCTGATGTTAATCGGGTCTTGATTCGCTTGACGCTGCTG,0.386 z-score
7,CCGATTAACATCAGGGGGAGATATGATGTTAATCGGGTCTTGATTCGCTTGACGCTGCTG,5.8 z-score
8,CCGATTAACATCAATATCCCCCCTGATGTTAATCGGGTCTTGATTCGCTTGACGCTGCTG,7.34 z-score
9,CCGATTAACATCAGGGGAATGCATGATGTTAATCGGGTCTTGATTCGCTTGACGCTGCTG,5.82 z-score
10,CCGATTAACATCACGGTACTTCCTGATGTTAATCGGGTCTTGATTCGCTTGACGCTGCTG,2.38 z-score
11,CCGATTAACATCAGGGGGGACCCTGATGTTAATCGGGTCTTGATTCGCTTGACGCTGCTG,6.34 z-score
12,CCGATTAACATCAGGGGGGACGATGATGTTAATCGGGTCTTGATTCGCTTGACGCTGCTG,5.01 z-score
13,CCGATTAACATCAGGGGAAAAACTGATGTTAATCGGGTCTTGATTCGCTTGACGCTGCTG,6.41 z-score
14,CCGATTAACATCACAGTTCCCCCTGATGTTAATCGGGTCTTGATTCGCTTGACGCTGCTG,6.94 z-score
15,CCGATTAACATCAGGGCAGCCCCTGATGTTAATCGGGTCTTGATTCGCTTGACGCTGCTG,4.41 z-score
16,CCGATTAACATCAGGGCAGTACCTGATGTTAATCGGGTCTTGATTCGCTTGACGCTGCTG,0.753 z-score
17,CCGATTAACATCAAATCTTCCCCTGATGTTAATCGGGTCTTGATTCGCTTGACGCTGCTG,6.29 z-score
18,CCGATTAACATCAAATTGGGAAATGATGTTAATCGGGTCTTGATTCGCTTGACGCTGCTG,0.485 z-score
19,CCGATTAACATCAGTAGTGGGGCTGATGTTAATCGGGTCTTGATTCGCTTGACGCTGCTG,0.671 z-score
20,CCGATTAACATCAGGAGAGCCCCTGATGTTAATCGGGTCTTGATTCGCTTGACGCTGCTG,3.65 z-score

row,Sequence,binding signal
1,CCGATTAACATCAAGGAACCCCCTGATGTTAATCGGGTCTTGATTCGCTTGACGCTGCTG,8.43 z-score
2,CCGATTAACATCAATACCCCCCCTGATGTTAATCGGGTCTTGATTCGCTTGACGCTGCTG,6.7 z-score
3,CCGATTAACATCATTATGGGAAATGATGTTAATCGGGTCTTGATTCGCTTGACGCTGCTG,0.604 z-score
4,CCGATTAACATCAGGAAATTTCCTGATGTTAATCGGGTCTTGATTCGCTTGACGCTGCTG,0.375 z-score
5,CCGATTAACATCAAAAACTCCCCTGATGTTAATCGGGTCTTGATTCGCTTGACGCTGCTG,9.29 z-score
6,CCGATTAACATCAGGCACCCCCCTGATGTTAATCGGGTCTTGATTCGCTTGACGCTGCTG,5.14 z-score
7,CCGATTAACATCAAATCTTTCCCTGATGTTAATCGGGTCTTGATTCGCTTGACGCTGCTG,3.05 z-score
8,CCGATTAACATCAAAAATTACCATGATGTTAATCGGGTCTTGATTCGCTTGACGCTGCTG,0.657 z-score
9,CCGATTAACATCAGGGGGAGTGATGATGTTAATCGGGTCTTGATTCGCTTGACGCTGCTG,5.05 z-score
10,CCGATTAACATCACCCCATCCCCTGATGTTAATCGGGTCTTGATTCGCTTGACGCTGCTG,4.19 z-score
11,CCGATTAACATCATCAGGGGGGATGATGTTAATCGGGTCTTGATTCGCTTGACGCTGCTG,4.58 z-score
12,CCGATTAACATCAAAGTACCCCCTGATGTTAATCGGGTCTTGATTCGCTTGACGCTGCTG,6.74 z-score
13,CCGATTAACATCAGGGAGAACCCTGATGTTAATCGGGTCTTGATTCGCTTGACGCTGCTG,4.28 z-score
14,CCGATTAACATCAAAATTCCCGTTGATGTTAATCGGGTCTTGATTCGCTTGACGCTGCTG,3.98 z-score
15,CCGATTAACATCAATAAATACCCTGATGTTAATCGGGTCTTGATTCGCTTGACGCTGCTG,3.73 z-score
16,CCGATTAACATCAAGGGCATTCCTGATGTTAATCGGGTCTTGATTCGCTTGACGCTGCTG,1.84 z-score
17,CCGATTAACATCAAAACCCCCCCTGATGTTAATCGGGTCTTGATTCGCTTGACGCTGCTG,8.72 z-score
18,CCGATTAACATCAGGGATACACCTGATGTTAATCGGGTCTTGATTCGCTTGACGCTGCTG,2.29 z-score
19,CCGATTAACATCAGGGAAAGATATGATGTTAATCGGGTCTTGATTCGCTTGACGCTGCTG,2.67 z-score
20,CCGATTAACATCACGTAAGGGATTGATGTTAATCGGGTCTTGATTCGCTTGACGCTGCTG,0.96 z-score

# Target: T2, GST-Co-NF-kB (UniProt F1ARL5)
# T2 sequence: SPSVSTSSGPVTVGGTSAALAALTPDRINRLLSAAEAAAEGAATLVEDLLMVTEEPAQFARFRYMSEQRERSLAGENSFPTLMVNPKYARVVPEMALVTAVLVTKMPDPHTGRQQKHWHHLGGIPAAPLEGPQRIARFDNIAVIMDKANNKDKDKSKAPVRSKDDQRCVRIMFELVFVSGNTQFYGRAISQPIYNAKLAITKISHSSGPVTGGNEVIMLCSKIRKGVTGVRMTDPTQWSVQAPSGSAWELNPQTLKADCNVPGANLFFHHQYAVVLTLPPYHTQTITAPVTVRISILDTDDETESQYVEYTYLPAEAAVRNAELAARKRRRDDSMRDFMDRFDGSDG
# Assay: protein-binding microarray (PBM)
# Conditions: PBM: ~300 nM protein, 6 mM HEPES pH 7.8, 80 mM KCl, 0.5 mM EDTA, 0.5 mM EGTA, 6% glycerol, 35 ng/ul poly-dIdC, 1% milk, 1 h, room temperature; Ap Aiptasia and Nv Nematostella (sea anemones) / Co Capsaspora / Aq Amphimedon (sponge) / Dm Drosophila / Hu human; RHD is the Rel homology domain; high values mean tight binding; most listed sequences are background and not binding sites; double strand, one strand shown
row,Sequence,binding signal
1,CCGATTAACATCACGTACTCCCCTGATGTTAATCGGGTCTTGATTCGCTTGACGCTGCTG,2.99 z-score
2,CCGATTAACATCAGGGGAAACCATGATGTTAATCGGGTCTTGATTCGCTTGACGCTGCTG,8.24 z-score
3,CCGATTAACATCAGAGTCCCCCCTGATGTTAATCGGGTCTTGATTCGCTTGACGCTGCTG,7.33 z-score
4,CCGATTAACATCAAGTACGGGAATGATGTTAATCGGGTCTTGATTCGCTTGACGCTGCTG,2.85 z-score
5,CCGATTAACATCAGGAGTCTCCCTGATGTTAATCGGGTCTTGATTCGCTTGACGCTGCTG,2.17 z-score
6,CCGATTAACATCAAGAAATTTCCTGATGTTAATCGGGTCTTGATTCGCTTGACGCTGCTG,0.522 z-score
7,CCGATTAACATCAGGGGGAGATATGATGTTAATCGGGTCTTGATTCGCTTGACGCTGCTG,8.37 z-score
8,CCGATTAACATCAATATCCCCCCTGATGTTAATCGGGTCTTGATTCGCTTGACGCTGCTG,8.06 z-score
9,CCGATTAACATCAGGGGAATGCATGATGTTAATCGGGTCTTGATTCGCTTGACGCTGCTG,5.53 z-score
10,CCGATTAACATCACGGTACTTCCTGATGTTAATCGGGTCTTGATTCGCTTGACGCTGCTG,0.0894 z-score
11,CCGATTAACATCAGGGGGGACCCTGATGTTAATCGGGTCTTGATTCGCTTGACGCTGCTG,4.11 z-score
12,CCGATTAACATCAGGGGGGACGATGATGTTAATCGGGTCTTGATTCGCTTGACGCTGCTG,5.85 z-score
13,CCGATTAACATCAGGGGAAAAACTGATGTTAATCGGGTCTTGATTCGCTTGACGCTGCTG,9.24 z-score
14,CCGATTAACATCACAGTTCCCCCTGATGTTAATCGGGTCTTGATTCGCTTGACGCTGCTG,8.18 z-score
15,CCGATTAACATCAGGGCAGCCCCTGATGTTAATCGGGTCTTGATTCGCTTGACGCTGCTG,1.25 z-score
16,CCGATTAACATCAGGGCAGTACCTGATGTTAATCGGGTCTTGATTCGCTTGACGCTGCTG,-0.383 z-score
17,CCGATTAACATCAAATCTTCCCCTGATGTTAATCGGGTCTTGATTCGCTTGACGCTGCTG,9.84 z-score
18,CCGATTAACATCAAATTGGGAAATGATGTTAATCGGGTCTTGATTCGCTTGACGCTGCTG,1.89 z-score
19,CCGATTAACATCAGTAGTGGGGCTGATGTTAATCGGGTCTTGATTCGCTTGACGCTGCTG,0.971 z-score
20,CCGATTAACATCAGGAGAGCCCCTGATGTTAATCGGGTCTTGATTCGCTTGACGCTGCTG,0.578 z-score

row,Sequence,binding signal
1,CCGATTAACATCAAGGAACCCCCTGATGTTAATCGGGTCTTGATTCGCTTGACGCTGCTG,2.03 z-score
2,CCGATTAACATCAATACCCCCCCTGATGTTAATCGGGTCTTGATTCGCTTGACGCTGCTG,6.7 z-score
3,CCGATTAACATCATTATGGGAAATGATGTTAATCGGGTCTTGATTCGCTTGACGCTGCTG,2.21 z-score
4,CCGATTAACATCAGGAAATTTCCTGATGTTAATCGGGTCTTGATTCGCTTGACGCTGCTG,0.735 z-score
5,CCGATTAACATCAAAAACTCCCCTGATGTTAATCGGGTCTTGATTCGCTTGACGCTGCTG,6.91 z-score
6,CCGATTAACATCAGGCACCCCCCTGATGTTAATCGGGTCTTGATTCGCTTGACGCTGCTG,2.79 z-score
7,CCGATTAACATCAAATCTTTCCCTGATGTTAATCGGGTCTTGATTCGCTTGACGCTGCTG,5.78 z-score
8,CCGATTAACATCAAAAATTACCATGATGTTAATCGGGTCTTGATTCGCTTGACGCTGCTG,-0.0195 z-score
9,CCGATTAACATCAGGGGGAGTGATGATGTTAATCGGGTCTTGATTCGCTTGACGCTGCTG,3.71 z-score
10,CCGATTAACATCACCCCATCCCCTGATGTTAATCGGGTCTTGATTCGCTTGACGCTGCTG,2.99 z-score
11,CCGATTAACATCATCAGGGGGGATGATGTTAATCGGGTCTTGATTCGCTTGACGCTGCTG,6.21 z-score
12,CCGATTAACATCAAAGTACCCCCTGATGTTAATCGGGTCTTGATTCGCTTGACGCTGCTG,6.64 z-score
13,CCGATTAACATCAGGGAGAACCCTGATGTTAATCGGGTCTTGATTCGCTTGACGCTGCTG,1.72 z-score
14,CCGATTAACATCAAAATTCCCGTTGATGTTAATCGGGTCTTGATTCGCTTGACGCTGCTG,4.03 z-score
15,CCGATTAACATCAATAAATACCCTGATGTTAATCGGGTCTTGATTCGCTTGACGCTGCTG,2.51 z-score
16,CCGATTAACATCAAGGGCATTCCTGATGTTAATCGGGTCTTGATTCGCTTGACGCTGCTG,0.348 z-score
17,CCGATTAACATCAAAACCCCCCCTGATGTTAATCGGGTCTTGATTCGCTTGACGCTGCTG,6.13 z-score
18,CCGATTAACATCAGGGATACACCTGATGTTAATCGGGTCTTGATTCGCTTGACGCTGCTG,1.56 z-score
19,CCGATTAACATCAGGGAAAGATATGATGTTAATCGGGTCTTGATTCGCTTGACGCTGCTG,4.56 z-score
20,CCGATTAACATCACGTAAGGGATTGATGTTAATCGGGTCTTGATTCGCTTGACGCTGCTG,0.529 z-score
